# Reference: paper PMC12820563, “FoxP3 forms a head-to-head dimer in vivo and stabilizes its multimerization on adjacent microsatellites”
# The list shows a part of the results.
# Biological target: T1, MBP-FoxP1dN (Mus musculus, UniProt P58462 326-579)
# T1 sequence: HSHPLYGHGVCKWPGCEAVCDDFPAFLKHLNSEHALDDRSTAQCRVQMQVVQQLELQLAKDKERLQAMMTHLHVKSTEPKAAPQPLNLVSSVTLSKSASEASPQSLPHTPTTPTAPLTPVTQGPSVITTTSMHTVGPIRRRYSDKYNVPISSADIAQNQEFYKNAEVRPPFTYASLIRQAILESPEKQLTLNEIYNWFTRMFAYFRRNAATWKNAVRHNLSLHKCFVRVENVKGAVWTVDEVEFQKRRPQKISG
# Assay: PD-seq (MBP pull-down with sequencing); 20 mM Tris-HCl pH 7.5, 100 mM NaCl, 1.5 mM MgCl2, 0.4 uM protein, 0.1 uM dsDNA library, 30 min, room temperature, amylose pull-down; high values mean tight binding
# Conditions: protein: recombinant; tags: His6-MBP; chain copies: 2; dsDNA, one strand shown
# Procedure, shortened: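 Protein and DNA were mixed at 0.4 µM and 0.1 µM and held for 30 min at room temperature in Tris pH 7.5 buffer with NaCl and MgCl2; the protein was a His6-MBP-tagged, N-terminally truncated mouse FoxP3 or FoxP1 fragment from E. coli, and the DNA a Klenow-filled double-stranded degenerate library. Amylose resin captured the complexes, which were washed three times. Binding is read as reads-per-million enrichment of pull-down versus input after Illumina sequencing, with replicates pooled.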
row,Sequence,binding signal
1,GATGATTGTTCTCCCAGCTGATGAATTGGTCTAGTCGAGTAAACAAATTTTCCTAATCTTTCTGTTCAAGCGCCATCTAC,0.943 RPM ratio (pull-down/input)
2,GATGATTGTTCTCCCAGCTGATGAATTGGCATTATCGAGTAAACAAATTTTCCTAATCTTTCTGTTCAAGCGCCATCTAC,1.15 RPM ratio (pull-down/input)
3,GATGATTGTTCTCCCAGCTGATGAATTGTGACAATCGAGTAAACAAATTTTCCTAATCTTTCTGTTCAAGCGCCATCTAC,1.53 RPM ratio (pull-down/input)
4,GATGATTGTTCTCCCAGCTGATGAATTAGGGGTTTCGAGTAAACAAATTTTCCTAATCTTTCTGTTCAAGCGCCATCTAC,0.83 RPM ratio (pull-down/input)
5,GATGATTGTTCTCCCAGCTGATGAATTTTCCAAATCGAGTAAACAAATTTTCCTAATCTTTCTGTTCAAGCGCCATCTAC,0.999 RPM ratio (pull-down/input)
6,GATGATTGTTCTCCCAGCTGATGAATTGAGAAACTCGAGTAAACAAATTTTCCTAATCTTTCTGTTCAAGCGCCATCTAC,0.787 RPM ratio (pull-down/input)
7,GATGATTGTTCTCCCAGCTGATGAATTTGGCCATTCGAGTAAACAAATTTTCCTAATCTTTCTGTTCAAGCGCCATCTAC,0.926 RPM ratio (pull-down/input)
8,GATGATTGTTCTCCCAGCTGATGAATTAACCGTTTCGAGTAAACAAATTTTCCTAATCTTTCTGTTCAAGCGCCATCTAC,0.98 RPM ratio (pull-down/input)
9,GATGATTGTTCTCCCAGCTGATGAATTGTCGCAATCGAGTAAACAAATTTTCCTAATCTTTCTGTTCAAGCGCCATCTAC,1.36 RPM ratio (pull-down/input)
10,GATGATTGTTCTCCCAGCTGATGAATTCAGATCCTCGAGTAAACAAATTTTCCTAATCTTTCTGTTCAAGCGCCATCTAC,0.737 RPM ratio (pull-down/input)
11,GATGATTGTTCTCCCAGCTGATGAATTGCCTCCGTCGAGTAAACAAATTTTCCTAATCTTTCTGTTCAAGCGCCATCTAC,0.961 RPM ratio (pull-down/input)
12,GATGATTGTTCTCCCAGCTGATGAATTCCCTTCGTCGAGTAAACAAATTTTCCTAATCTTTCTGTTCAAGCGCCATCTAC,0.827 RPM ratio (pull-down/input)
13,GATGATTGTTCTCCCAGCTGATGAATTCGTCGTATCGAGTAAACAAATTTTCCTAATCTTTCTGTTCAAGCGCCATCTAC,0.972 RPM ratio (pull-down/input)
14,GATGATTGTTCTCCCAGCTGATGAATTTGGTGTTTCGAGTAAACAAATTTTCCTAATCTTTCTGTTCAAGCGCCATCTAC,1.12 RPM ratio (pull-down/input)
15,GATGATTGTTCTCCCAGCTGATGAATTTATAAGTTCGAGTAAACAAATTTTCCTAATCTTTCTGTTCAAGCGCCATCTAC,1.06 RPM ratio (pull-down/input)
16,GATGATTGTTCTCCCAGCTGATGAATTTGGCCGCTCGAGTAAACAAATTTTCCTAATCTTTCTGTTCAAGCGCCATCTAC,0.845 RPM ratio (pull-down/input)
17,GATGATTGTTCTCCCAGCTGATGAATTACGCATCTCGAGTAAACAAATTTTCCTAATCTTTCTGTTCAAGCGCCATCTAC,1.27 RPM ratio (pull-down/input)
18,GATGATTGTTCTCCCAGCTGATGAATTGCCCAGCTCGAGTAAACAAATTTTCCTAATCTTTCTGTTCAAGCGCCATCTAC,0.857 RPM ratio (pull-down/input)
19,GATGATTGTTCTCCCAGCTGATGAATTGTCCAGTTCGAGTAAACAAATTTTCCTAATCTTTCTGTTCAAGCGCCATCTAC,0.931 RPM ratio (pull-down/input)
20,GATGATTGTTCTCCCAGCTGATGAATTGGCCCGCTCGAGTAAACAAATTTTCCTAATCTTTCTGTTCAAGCGCCATCTAC,0.764 RPM ratio (pull-down/input)

row,Sequence,binding signal
1,GATGATTGTTCTCCCAGCTGATGAATTAGTTTCCTCGAGTAAACAAATTTTCCTAATCTTTCTGTTCAAGCGCCATCTAC,0.939 RPM ratio (pull-down/input)
2,GATGATTGTTCTCCCAGCTGATGAATTTCATGAATCGAGTAAACAAATTTTCCTAATCTTTCTGTTCAAGCGCCATCTAC,0.896 RPM ratio (pull-down/input)
3,GATGATTGTTCTCCCAGCTGATGAATTCCGTTGCTCGAGTAAACAAATTTTCCTAATCTTTCTGTTCAAGCGCCATCTAC,0.893 RPM ratio (pull-down/input)
4,GATGATTGTTCTCCCAGCTGATGAATTCTAACTATCGAGTAAACAAATTTTCCTAATCTTTCTGTTCAAGCGCCATCTAC,0.944 RPM ratio (pull-down/input)
5,GATGATTGTTCTCCCAGCTGATGAATTAAGATATTCGAGTAAACAAATTTTCCTAATCTTTCTGTTCAAGCGCCATCTAC,0.895 RPM ratio (pull-down/input)
6,GATGATTGTTCTCCCAGCTGATGAATTAGGTCAGTCGAGTAAACAAATTTTCCTAATCTTTCTGTTCAAGCGCCATCTAC,0.788 RPM ratio (pull-down/input)
7,GATGATTGTTCTCCCAGCTGATGAATTTCAGGACTCGAGTAAACAAATTTTCCTAATCTTTCTGTTCAAGCGCCATCTAC,0.771 RPM ratio (pull-down/input)
8,GATGATTGTTCTCCCAGCTGATGAATTAATATGGTCGAGTAAACAAATTTTCCTAATCTTTCTGTTCAAGCGCCATCTAC,0.915 RPM ratio (pull-down/input)
9,GATGATTGTTCTCCCAGCTGATGAATTGACGTGGTCGAGTAAACAAATTTTCCTAATCTTTCTGTTCAAGCGCCATCTAC,1.08 RPM ratio (pull-down/input)
10,GATGATTGTTCTCCCAGCTGATGAATTCACAATCTCGAGTAAACAAATTTTCCTAATCTTTCTGTTCAAGCGCCATCTAC,0.968 RPM ratio (pull-down/input)
11,GATGATTGTTCTCCCAGCTGATGAATTCGGAGACTCGAGTAAACAAATTTTCCTAATCTTTCTGTTCAAGCGCCATCTAC,0.809 RPM ratio (pull-down/input)
12,GATGATTGTTCTCCCAGCTGATGAATTAAGCGGATCGAGTAAACAAATTTTCCTAATCTTTCTGTTCAAGCGCCATCTAC,0.948 RPM ratio (pull-down/input)
13,GATGATTGTTCTCCCAGCTGATGAATTGTAAGACTCGAGTAAACAAATTTTCCTAATCTTTCTGTTCAAGCGCCATCTAC,0.981 RPM ratio (pull-down/input)
14,GATGATTGTTCTCCCAGCTGATGAATTGTGCCTGTCGAGTAAACAAATTTTCCTAATCTTTCTGTTCAAGCGCCATCTAC,0.964 RPM ratio (pull-down/input)
15,GATGATTGTTCTCCCAGCTGATGAATTCGATAGGTCGAGTAAACAAATTTTCCTAATCTTTCTGTTCAAGCGCCATCTAC,0.706 RPM ratio (pull-down/input)
16,GATGATTGTTCTCCCAGCTGATGAATTCTTCTTTTCGAGTAAACAAATTTTCCTAATCTTTCTGTTCAAGCGCCATCTAC,0.979 RPM ratio (pull-down/input)
17,GATGATTGTTCTCCCAGCTGATGAATTTAGTGACTCGAGTAAACAAATTTTCCTAATCTTTCTGTTCAAGCGCCATCTAC,0.965 RPM ratio (pull-down/input)
18,GATGATTGTTCTCCCAGCTGATGAATTCGGCCCATCGAGTAAACAAATTTTCCTAATCTTTCTGTTCAAGCGCCATCTAC,0.771 RPM ratio (pull-down/input)
19,GATGATTGTTCTCCCAGCTGATGAATTTGCGTACTCGAGTAAACAAATTTTCCTAATCTTTCTGTTCAAGCGCCATCTAC,1.15 RPM ratio (pull-down/input)
20,GATGATTGTTCTCCCAGCTGATGAATTGAAACCCTCGAGTAAACAAATTTTCCTAATCTTTCTGTTCAAGCGCCATCTAC,0.809 RPM ratio (pull-down/input)
